# Measurements from PMC7757826.
# Results are given in words; binding and its absence hold for the method and conditions named. In cells and extracts the contact can be indirect. Some entries that bind do so weakly or less than the wild type.
# T1: claudin-7 (human (endogenous in A2780, OVCAR-3, SKOV-3 and A2780cis cells)) (UniProt O95471)
# T1 sequence: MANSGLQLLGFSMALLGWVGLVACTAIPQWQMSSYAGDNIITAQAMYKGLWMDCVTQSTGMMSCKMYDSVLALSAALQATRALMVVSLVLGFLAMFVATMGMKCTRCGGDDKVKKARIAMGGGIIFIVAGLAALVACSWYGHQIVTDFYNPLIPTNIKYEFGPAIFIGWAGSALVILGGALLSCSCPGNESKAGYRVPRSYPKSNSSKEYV
# T2: Epithelial cell adhesion molecule (EpCAM) (human (endogenous in A2780, OVCAR-3, SKOV-3 and A2780cis cells)) (UniProt P16422)
# T2 sequence: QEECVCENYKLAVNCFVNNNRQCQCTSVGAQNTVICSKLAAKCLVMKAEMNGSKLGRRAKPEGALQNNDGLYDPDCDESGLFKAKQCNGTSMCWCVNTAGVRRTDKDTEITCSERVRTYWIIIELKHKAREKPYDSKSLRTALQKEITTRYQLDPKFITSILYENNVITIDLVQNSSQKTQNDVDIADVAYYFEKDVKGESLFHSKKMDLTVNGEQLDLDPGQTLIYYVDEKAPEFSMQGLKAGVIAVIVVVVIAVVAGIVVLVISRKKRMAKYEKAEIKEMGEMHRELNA
# T3: CD82 (Tspan-27) (human (endogenous in A2780, OVCAR-3, SKOV-3 and A2780cis cells)) (UniProt P27701)
# T3 sequence: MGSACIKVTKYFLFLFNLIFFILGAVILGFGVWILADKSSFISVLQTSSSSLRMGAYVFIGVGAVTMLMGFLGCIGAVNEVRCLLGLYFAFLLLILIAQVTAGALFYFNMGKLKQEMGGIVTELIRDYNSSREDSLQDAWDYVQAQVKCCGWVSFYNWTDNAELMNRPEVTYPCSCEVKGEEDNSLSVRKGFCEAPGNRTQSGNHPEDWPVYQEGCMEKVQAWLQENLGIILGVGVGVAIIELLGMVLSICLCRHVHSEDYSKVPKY
# T4: CD82 (Tspan-27) (human (endogenous in A2780, OVCAR-3, SKOV-3 and A2780cis cells)), P27701
# T4 chain: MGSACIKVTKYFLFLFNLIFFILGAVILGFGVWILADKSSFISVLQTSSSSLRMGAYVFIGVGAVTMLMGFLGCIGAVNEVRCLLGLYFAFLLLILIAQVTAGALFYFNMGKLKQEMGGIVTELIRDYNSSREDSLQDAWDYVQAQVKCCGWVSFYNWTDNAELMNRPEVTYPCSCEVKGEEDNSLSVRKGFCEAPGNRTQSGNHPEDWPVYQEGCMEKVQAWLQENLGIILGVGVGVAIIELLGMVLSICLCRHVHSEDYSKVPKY
# T5: claudin-7 (human (endogenous in A2780, OVCAR-3, SKOV-3 and A2780cis cells)), O95471
# T5 chain: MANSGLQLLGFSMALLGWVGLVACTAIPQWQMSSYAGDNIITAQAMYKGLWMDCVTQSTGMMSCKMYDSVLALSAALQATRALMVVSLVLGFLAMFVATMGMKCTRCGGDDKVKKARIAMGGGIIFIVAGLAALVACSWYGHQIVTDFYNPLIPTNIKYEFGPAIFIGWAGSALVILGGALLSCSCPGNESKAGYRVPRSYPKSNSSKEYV
# T6: claudin-4 (human (endogenous in A2780, OVCAR-3, SKOV-3 and A2780cis cells)), O14493
# T6 chain: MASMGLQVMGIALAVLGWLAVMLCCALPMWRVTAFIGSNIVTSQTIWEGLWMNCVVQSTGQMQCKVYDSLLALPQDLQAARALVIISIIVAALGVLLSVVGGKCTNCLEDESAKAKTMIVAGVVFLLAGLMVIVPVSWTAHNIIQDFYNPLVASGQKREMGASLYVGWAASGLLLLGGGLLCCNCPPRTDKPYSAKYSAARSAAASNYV
# T7: claudin-1 (human (endogenous in A2780, OVCAR-3 and SKOV-3 cells)), O95832
# T7 chain: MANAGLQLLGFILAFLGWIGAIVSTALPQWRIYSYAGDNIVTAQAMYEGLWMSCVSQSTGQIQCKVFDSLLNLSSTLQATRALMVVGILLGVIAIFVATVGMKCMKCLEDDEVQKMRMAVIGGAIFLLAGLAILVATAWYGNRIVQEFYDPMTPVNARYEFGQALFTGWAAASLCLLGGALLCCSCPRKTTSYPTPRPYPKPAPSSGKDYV
# Tests used:
# [1] = target: T1, claudin-7 (human (endogenous in A2780, OVCAR-3, SKOV-3 and A2780cis cells)); experiment: co-IP; A2780 cells lysed in 1% Triton X-100 buffer; lysates precipitated with antibodies to the studied molecules, western blot
# [2] = target: claudin-4 (human (endogenous in A2780, OVCAR-3, SKOV-3 and A2780cis cells)) (UniProt O14493); experiment: co-IP; SKOV-3 cells lysed in 1% Triton X-100 buffer; lysates precipitated with antibodies to the studied molecules, western blot
# [3] = target: T2, Epithelial cell adhesion molecule (EpCAM) (human (endogenous in A2780, OVCAR-3, SKOV-3 and A2780cis cells)); experiment: co-IP; OVCAR-3 cells lysed in 1% Triton X-100 buffer; lysates precipitated with antibodies to the studied molecules, western blot
# [4] = target: claudin-4 (human (endogenous in A2780, OVCAR-3, SKOV-3 and A2780cis cells)) (UniProt O14493); experiment: as above
# [5] = target: T1, claudin-7 (human (endogenous in A2780, OVCAR-3, SKOV-3 and A2780cis cells)); experiment: condition: only cells treated with 50 μM 2-BP (palmitoylation inhibitor); co-IP; A2780 cells treated with the palmitoylation inhibitor 2-BP (50 μM, 20 h, 37 °C), RIPA buffer; anti-CD82 or anti-claudin-7 precipitates
# [6] = target: T3, CD82 (Tspan-27) (human (endogenous in A2780, OVCAR-3, SKOV-3 and A2780cis cells)); experiment: condition: only cells treated with 50 μM 2-BP (palmitoylation inhibitor); co-IP; SKOV-3 cells treated with the palmitoylation inhibitor 2-BP (50 μM, 20 h, 37 °C), RIPA buffer; anti-CD82 or anti-claudin-7 precipitates
# [7] = target: T1, claudin-7 (human (endogenous in A2780, OVCAR-3, SKOV-3 and A2780cis cells)); experiment: as above
# [8] = target: T3, CD82 (Tspan-27) (human (endogenous in A2780, OVCAR-3, SKOV-3 and A2780cis cells)); experiment: condition: only cells treated with 50 μM 2-BP (palmitoylation inhibitor); co-IP; OVCAR-3 cells treated with the palmitoylation inhibitor 2-BP (50 μM, 20 h, 37 °C), RIPA buffer; anti-CD82 or anti-claudin-7 precipitates
# [9] = target: T1, claudin-7 (human (endogenous in A2780, OVCAR-3, SKOV-3 and A2780cis cells)); experiment: as above
# [10] = target: T3, CD82 (Tspan-27) (human (endogenous in A2780, OVCAR-3, SKOV-3 and A2780cis cells)); experiment: condition: only lysed in RIPA buffer after DTSSP treatment; cross-linking + co-IP; A2780 cells treated with the membrane-impermeable cross-linker DTSSP (1 mM, 30 min, 37 °C), lysed in RIPA buffer; anti-CD82 or anti-claudin-7 precipitates
# [11] = target: T4, CD82 (Tspan-27) (human (endogenous in …)); experiment: co-IP; A2780 cells lysed in 1% Triton X-100 buffer; lysates precipitated with antibodies to the studied molecules, western blot; details: remark: other sources report otherwise
# [12] = target: T4, CD82 (Tspan-27) (human (endogenous in …)); experiment: cross-linking + co-IP; A2780 cells treated first with 2-BP and then with DSP or DTSSP; anti-CD82 or anti-claudin-7 precipitates; details: remark: other sources report otherwise
# [13] = target: T5, claudin-7 (human (endogenous in A2780, …)); experiment: as above; details: remark: other sources report otherwise
# [14] = target: T4, CD82 (Tspan-27) (human (endogenous in …)); experiment: co-IP; SKOV-3 cells lysed in 1% Triton X-100 buffer; lysates precipitated with antibodies to the studied molecules, western blot; details: remark: other sources report otherwise
# [15] = target: T5, claudin-7 (human (endogenous in A2780, …)); experiment: as above; details: remark: other sources report otherwise
# [16] = target: T4, CD82 (Tspan-27) (human (endogenous in …)); experiment: co-IP; OVCAR-3 cells lysed in 1% Triton X-100 buffer; lysates precipitated with antibodies to the studied molecules, western blot; details: remark: other sources report otherwise
# [17] = target: T4, CD82 (Tspan-27) (human (endogenous in …)); experiment: cross-linking + co-IP; A2780 cells treated with the membrane-permeable cross-linker DSP (1 mM, 30 min, 37 °C), lysed in RIPA buffer; anti-CD82 or anti-claudin-7 precipitates; details: remark: other sources report otherwise
# [18] = target: T5, claudin-7 (human (endogenous in A2780, …)); experiment: as above; details: remark: other sources report otherwise
# [19] = target: T5, claudin-7 (human (endogenous in A2780, …)); experiment: cross-linking + co-IP; A2780 cells treated with the membrane-impermeable cross-linker DTSSP (1 mM, 30 min, 37 °C), lysed in RIPA buffer; anti-CD82 or anti-claudin-7 precipitates; details: remark: other sources report otherwise
# [20] = target: T4, CD82 (Tspan-27) (human (endogenous in …)); experiment: cross-linking + co-IP; OVCAR-3 cells treated with DSP or DTSSP (1 mM, 30 min, 37 °C), with or without 2-BP beforehand, lysed in RIPA buffer; anti-CD82 or anti-claudin-7 precipitates; details: remark: other sources report otherwise
# [21] = target: T5, claudin-7 (human (endogenous in A2780, …)); experiment: as above; details: remark: other sources report otherwise
# [22] = target: T4, CD82 (Tspan-27) (human (endogenous in …)); experiment: cross-linking + co-IP; SKOV-3 cells treated with DSP or DTSSP (1 mM, 30 min, 37 °C), claudin-7 precipitates also after 2-BP beforehand, lysed in RIPA buffer; anti-CD82 or anti-claudin-7 precipitates; details: remark: other sources report otherwise
# [23] = target: T5, claudin-7 (human (endogenous in A2780, …)); experiment: as above; details: remark: other sources report otherwise
# [24] = target: T6, claudin-4 (human (endogenous in A2780, …)); experiment: co-IP; A2780 cells lysed in 1% Triton X-100 buffer; lysates precipitated with antibodies to the studied molecules, western blot; details: remark: other sources report otherwise
# [25] = target: T7, claudin-1 (human (endogenous in A2780, …)); experiment: co-IP; SKOV-3 cells lysed in 1% Triton X-100 buffer; lysates precipitated with antibodies to the studied molecules, western blot; details: remark: other sources report otherwise
# [26] = target: T6, claudin-4 (human (endogenous in A2780, …)); experiment: as above; details: remark: other sources report otherwise
# [27] = target: T7, claudin-1 (human (endogenous in A2780, …)); experiment: co-IP; OVCAR-3 cells lysed in 1% Triton X-100 buffer; lysates precipitated with antibodies to the studied molecules, western blot; details: remark: other sources report otherwise
# [28] = target: T6, claudin-4 (human (endogenous in A2780, …)); experiment: as above; details: remark: other sources report otherwise
molecule,measurement,setting,value
claudin-1 (from UniProt O95832 1-211),binding,[1],binds weakly
same,binding,[2],binds
same,binding,[3],binds
same,binding,[4],binds weakly
same,binding,[5],no binding
same,binding,[6],no binding
same,binding,[7],no binding
same,binding,[8],no binding
same,binding,[9],no binding
same,binding,[10],no binding
"claudin-1, O95832 1-211 (protein) MANAGLQLLGFILAFLGWIGAIVSTALPQWRIYSYAGDNIVTAQAMYEGLWMSCVSQSTGQIQCKVFDSLLNLSSTLQATRALMVVGILLGVIAIFVATVGMKCMKCLEDDEVQKMRMAVIGGAIFLLAGLAILVATAWYGNRIVQEFYDPMTPVNARYEFGQALFTGWAAASLCLLGGALLCCSCPRKTTSYPTPRPYPKPAPSSGKDYV",binding,[11],binds
same,binding,[12],binds
same,binding,[13],binds
same,binding,[14],binds
same,binding,[15],binds
same,binding,[16],binds
same,binding,[17],binds
same,binding,[18],binds
same,binding,[19],binds
same,binding,[20],binds
same,binding,[21],binds
same,binding,[22],binds
same,binding,[23],binds
"claudin-7, O95471 1-211 (protein) MANSGLQLLGFSMALLGWVGLVACTAIPQWQMSSYAGDNIITAQAMYKGLWMDCVTQSTGMMSCKMYDSVLALSAALQATRALMVVSLVLGFLAMFVATMGMKCTRCGGDDKVKKARIAMGGGIIFIVAGLAALVACSWYGHQIVTDFYNPLIPTNIKYEFGPAIFIGWAGSALVILGGALLSCSCPGNESKAGYRVPRSYPKSNSSKEYV",binding,[24],binds
same,binding,[25],binds
same,binding,[26],binds
same,binding,[27],binds
same,binding,[28],binds
